Holding throughout (assay): Viability of human cancer cell lines after 72 h of drug (GDSC screen)
Compound in experiment [1]: CC(=O)Nc1cccc(-n2c(=O)n(C3CC3)c(=O)c3c(Nc4ccc(I)cc4F)n(C)c(=O)c(C)c32)c1 [Trametinib]
The settings on record: top dose 1 µM. On the procedure: (§1)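 Human cancer cell lines in 384-well plates, medium with 10% serum, drug for 72 h over a 256-fold dose range (nine 2-fold or five 4-fold steps up to the top dose). Adherent lines were fixed and stained with the nucleic acid dye Syto60, suspension lines read with resazurin; signal relative to control wells, capped at 0 and 100%. One two-parameter sigmoid per drug and line, fitted in a mixed model over all curves with the slope shared within a line.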

Compound in experiment [2]: CCN1CCN(Cc2ccc(NC(=O)c3ccc(C)c(/C=C/c4cnc5[nH]ccc5c4OC)c3)cc2C(F)(F)F)CC1 [HG-6-64-1]
The conditions noted are these: top dose 5.12 µM; top dose inferred. On the procedure: as §1

Compound in experiment [3]: CCNC(=O)C[C@@H]1N=C(c2ccc(Cl)cc2)c2cc(OC)ccc2-n2c(C)nnc21 [I-BET-762]
The settings on record: top dose 20 µM; top dose inferred. On the procedure:
as §1

Compound in experiment [4]: CCc1cncnc1N1CCN(Cc2nc3ccc(C(F)(F)F)cc3[nH]2)CC1 [PF-4708671]
The conditions noted are these: top dose 10 µM; top dose inferred. Here is the method: as §1

Compound in experiment [5]: COc1cc2nccc(Oc3ccc(NC(=O)Nc4cc(C)on4)c(Cl)c3)c2cc1OC [AV-951]
The settings on record: top dose 0.128 µM; top dose inferred. On the procedure: as §1

Compound in experiment [6]: Nc1ccccc1NC(=O)c1ccc(CNC(=O)OCc2cccnc2)cc1 [MS-275]
The settings on record: top dose 5 µM; top dose inferred. On the procedure:
as §1

Compound in experiment [7]: O=C(NC(COc1ccc2[nH]c(=O)[nH]c2c1)c1ccccc1)c1cccn(Cc2ccc(F)c(F)c2)c1=O [KIN001-244]
The settings on record: top dose 20 µM; top dose inferred. Here is the method:
as §1

The results in this text go back to the supplement of paper PMC4967469.

Lines with a small IC50 respond at low doses; fits outside the tested doses are given as limits. AUC, from the same fit, is the share of area under the viability curve across the 256-fold dose range: 1 means no effect, lower means more sensitive. For some of these results: An inferred top dose was derived from the fitted curves, not read from the paper.

For orientation: IC50 means the midpoint of a concentration-inhibition curve. On to COLO-800 (melanoma, adherent), for which the AUC in experiment [1] stood at 0.962; in experiment [2], 0.985; in experiment [3], 0.945; in experiment [4] it was 0.987; in experiment [5] it was 0.985; in experiment [6], 0.963. Also, the AUC in experiment [7] worked out at 0.956. Besides, the concentration for half-maximal inhibition (IC50) in experiment [1] was above 1000 nM; in experiment [2] it was above 5120 nM; in experiment [3], above 20000 nM; in experiment [4] it was above 10000 nM; in experiment [5] it was above 128 nM; in experiment [6], above 5000 nM. The IC50 in experiment [7] was above 20000 nM.

Turning to COLO-829 (melanoma, adherent), the AUC was 0.393 in experiment [1]; 0.461 in experiment [2]; 0.91 in experiment [3]; 0.934 in experiment [4]; 0.97 in experiment [5]; 0.716 in experiment [6]. Also, in experiment [7], the AUC amounted to 0.821. Further, the concentration for half-maximal inhibition (IC50) is 27.7 nM in experiment [1]; 239 nM in experiment [2]; above 20000 nM in experiment [3]; above 10000 nM in experiment [4]; above 128 nM in experiment [5]; 1730 nM in experiment [6]. Moreover, in experiment [7], the concentration for half-maximal inhibition (IC50) stood at 19800 nM.

“COR-L88 (small cell lung carcinoma, adherent)”: the AUC was found to be 0.982 in experiment [1]; 0.926 in experiment [2]; 0.958 in experiment [3]; 0.928 in experiment [4]; 0.986 in experiment [5]; 0.449 in experiment [6]. In experiment [7], the AUC amounted to 0.92. The 50% inhibitory concentration (IC50) was above 1000 nM in experiment [1]; above 5120 nM in experiment [2]; above 20000 nM in experiment [3]; above 10000 nM in experiment [4]; above 128 nM in experiment [5]; 221 nM in experiment [6]. Besides, in experiment [7], the IC50 is above 20000 nM.

As to “COR-L95 (small cell lung carcinoma, adherent)”, the AUC in experiment [1] amounted to 0.984; in experiment [2], 0.982; in experiment [3], 0.926; in experiment [4], 0.958; in experiment [5] it was 0.978; in experiment [6], 0.73. The AUC in experiment [7] came to 0.899. Besides, the IC50 in experiment [1] was above 1000 nM; in experiment [2], above 5120 nM; in experiment [3], above 20000 nM; in experiment [4], above 10000 nM; in experiment [5] it was above 128 nM; in experiment [6], 1590 nM. Further, in experiment [7], the half-inhibitory concentration (IC50) was above 20000 nM.

“COR-L279 (small cell lung carcinoma, suspension)”: the AUC in experiment [1] amounted to 0.974; in experiment [2], 0.986; in experiment [3], 0.756; in experiment [4] it was 0.961; in experiment [5], 0.989; in experiment [6], 0.618. Also, in experiment [7], the AUC was 0.913. The concentration for half-maximal inhibition (IC50) in experiment [1] was above 1000 nM; in experiment [2], above 5120 nM; in experiment [3], 6160 nM; in experiment [4], above 10000 nM; in experiment [5], above 128 nM; in experiment [6], 634 nM. The IC50 in experiment [7] was above 20000 nM.

In the case of CP66-MEL (melanoma, adherent), the AUC is 0.153 in experiment [1]; 0.944 in experiment [2]; 0.984 in experiment [3]; 0.986 in experiment [4]; 0.986 in experiment [5]; 0.805 in experiment [6]. Moreover, the AUC in experiment [7] came out at 0.887. The concentration for half-maximal inhibition (IC50) in experiment [1] was 4.35 nM; in experiment [2], above 5120 nM; in experiment [3] it was above 20000 nM; in experiment [4] it was above 10000 nM; in experiment [5] it was above 128 nM; in experiment [6] it was 2970 nM. Moreover, the IC50 in experiment [7] is above 20000 nM.

“CPC-N (small cell lung carcinoma, suspension)”: the AUC in experiment [1] worked out at 0.934; in experiment [2], 0.951; in experiment [3] it was 0.853; in experiment [4] it was 0.969; in experiment [5], 0.983; in experiment [6] it was 0.607. Besides, the AUC in experiment [7] amounted to 0.937. The IC50 in experiment [1] was above 1000 nM; in experiment [2], above 5120 nM; in experiment [3], 17900 nM; in experiment [4], above 10000 nM; in experiment [5] it was above 128 nM; in experiment [6] it was 632 nM. The 50% inhibitory concentration (IC50) in experiment [7] is above 20000 nM.

For the cell line CTB-1 (B-cell lymphoma, suspension), the AUC came out at 0.944 in experiment [1]; 0.598 in experiment [2]; 0.542 in experiment [3]; 0.952 in experiment [4]; 0.943 in experiment [5]; 0.786 in experiment [6]. In experiment [7], the AUC was found to be 0.945. The concentration for half-maximal inhibition (IC50) in experiment [1] is above 1000 nM; in experiment [2], 654 nM; in experiment [3] it was 1690 nM; in experiment [4] it was above 10000 nM; in experiment [5] it was above 128 nM; in experiment [7] it was above 20000 nM.

Regarding “CTV-1 (acute myeloid leukaemia, suspension)”, the AUC in experiment [1] was found to be 0.975; in experiment [2], 0.244; in experiment [3], 0.942; in experiment [4], 0.954; in experiment [5], 0.979; in experiment [6], 0.732. Also, in experiment [7], the AUC is 0.859. Further, the IC50 was above 1000 nM in experiment [1]; 70.8 nM in experiment [2]; above 20000 nM in experiment [3]; above 10000 nM in experiment [4]; above 128 nM in experiment [5]; 1210 nM in experiment [6]. For the same cell line, the IC50 in experiment [7] came out at 11600 nM.

On to CW-2 (large intestine, adherent), for which the AUC in experiment [1] worked out at 0.927; in experiment [2], 0.989; in experiment [3], 0.929; in experiment [4], 0.943; in experiment [5], 0.983; in experiment [6], 0.987. In addition, the AUC in experiment [7] was 0.964. Further, the IC50 is above 1000 nM in experiment [1]; above 5120 nM in experiment [2]; above 20000 nM in experiment [3]; above 10000 nM in experiment [4]; above 128 nM in experiment [5]; above 5000 nM in experiment [6]. In addition, the half-inhibitory concentration (IC50) in experiment [7] was above 20000 nM.
